In a compilation of properties of binary mixtures (doi:10.1016/j.molliq.2012.02.014):
The densities may have been worked out from excess volumes.

Test: xn = mol fraction of the nth substance listed
Details: 101 kPa

Compound CCCCCC[n+]1ccn(C)c1.O=S(=O)([N-]S(=O)(=O)C(F)(F)F)C(F)(F)F + CN(CCO)CCO has a mass density (303.15 K, x2 = 0.0989) of 1351.6 kg/m3, a mass density (303.15 K, x2 = 0.1899) of 1336.7 kg/m3 and a mass density (303.15 K, x2 = 0.2977) of 1317.2 kg/m3. It also gave a mass density (303.15 K, x2 = 0.3999) of 1298 kg/m3, a mass density (303.15 K, x2 = 0.4988) of 1275.6 kg/m3 and a mass density (303.15 K, x2 = 0.6075) of 1245.3 kg/m3. For the same compound, the mass density (303.15 K, x2 = 0.7049) was 1211.4 kg/m3, the mass density (303.15 K, x2 = 0.899) was 1112.7 kg/m3 and the mass density (308.15 K, x2 = 0) was 1360 kg/m3. For the same compound, the mass density (308.15 K, x2 = 0.1899) was 1332.1 kg/m3, the mass density (308.15 K, x2 = 0.2977) was 1312.6 kg/m3 and the mass density (308.15 K, x2 = 0.4988) was 1271.1 kg/m3. The mass density (308.15 K, x2 = 0.6075) was 1240.8 kg/m3, the mass density (308.15 K, x2 = 0.7049) was 1207 kg/m3 and the mass density (308.15 K, x2 = 0.801) was 1164.9 kg/m3. It also gave a mass density (308.15 K, x2 = 0.899) of 1108.7 kg/m3, a mass density (313.15 K, x2 = 0) of 1355.4 kg/m3 and a mass density (313.15 K, x2 = 0.0989) of 1342.4 kg/m3. The mass density (313.15 K, x2 = 0.1899) was 1327.5 kg/m3, the mass density (313.15 K, x2 = 0.2977) was 1308 kg/m3 and the mass density (313.15 K, x2 = 0.4988) was 1266.5 kg/m3. It also gave a mass density (313.15 K, x2 = 0.7049) of 1202.6 kg/m3, a mass density (313.15 K, x2 = 0.801) of 1160.6 kg/m3 and a mass density (318.15 K, x2 = 0) of 1350.9 kg/m3. It also gave a mass density (318.15 K, x2 = 0.0989) of 1337.9 kg/m3, a mass density (318.15 K, x2 = 0.1899) of 1322.9 kg/m3 and a mass density (318.15 K, x2 = 0.2977) of 1303.5 kg/m3. For the same compound, the mass density (318.15 K, x2 = 0.3999) was 1284.3 kg/m3, the mass density (318.15 K, x2 = 0.4988) was 1262 kg/m3 and the mass density (318.15 K, x2 = 0.6075) was 1231.9 kg/m3. For the same compound, the mass density (318.15 K, x2 = 0.801) was 1156.3 kg/m3, the mass density (318.15 K, x2 = 0.899) was 1100.5 kg/m3 and the mass density (323.15 K, x2 = 0) was 1346.3 kg/m3. It also gave a mass density (323.15 K, x2 = 0.0989) of 1333.3 kg/m3, a mass density (323.15 K, x2 = 0.1899) of 1318.3 kg/m3 and a mass density (323.15 K, x2 = 0.3999) of 1279.6 kg/m3. It also gave a mass density (323.15 K, x2 = 0.4988) of 1257.4 kg/m3, a mass density (323.15 K, x2 = 0.6075) of 1227.3 kg/m3 and a mass density (323.15 K, x2 = 0.801) of 1152 kg/m3. It also gave a mass density (323.15 K, x2 = 0.899) of 1096.4 kg/m3.
CN(CCO)CCO + CCCCCC[n+]1ccn(C)c1.O=S(=O)([N-]S(=O)(=O)C(F)(F)F)C(F)(F)F showed a mass density (308.15 K, x1 = 1) of 1029.5 kg/m3 and a mass density (323.15 K, x1 = 1) of 1018 kg/m3.
